Measurements from article PMC12808100, “The non-catalytic DNA polymerase ε subunit is an NPF motif recognition protein” (Nature Communications, 2025).

Test system: POLE2 D284G
Assay: Proximity labeling MS, POLE2 D284G
Conditions: bait POLE2_D284G

B1: ABT1 (protein, UniProt Q9ULW3 1-272, looked up)
Activator of basal …: MEAEESEKAATEQEPLEGTEQTLDAEEEQEESEEAACGSKKRVVPGIVYLGHIPPRFRPLHVRNLLSAYGEVGRVFFQAEDRFVRRKKKAAAAAGGKKRSYTKDYTEGWVEFRDKRIAKRVAASLHNTPMGARRRSPFRYDLWNLKYLHRFTWSHLSEHLAFERQVRRQRLRAEVAQAKRETDFYLQSVERGQRFLAADGDPARPDGSWTFAQRPTEQELRARKAARPGGRERARLATAQDKARSNKGLLARIFGAPPPSESMEGPSLVRDS
Q: For B1, which AvgSpec (mean of 3 replicates) is on record?
A: The AvgSpec was 10.67.

Q: What about the Spec (replicate 1) of the same molecule?
A: The Spec was 11.

Q: What about the Spec (replicate 2) of the same molecule?
A: Its Spec is 7.

Q: And the Spec (replicate 3)?
A: The Spec was 14.

Q: And the SpecSum (sum of 3 replicates)?
A: The SpecSum was 32.

Q: What about the FoldChange (versus control counts) of the same molecule?
A: The FoldChange was 8.8.
